From PubChem BioAssay AID1508624 (National Center for Advancing Translational Sciences (NCATS), 2021)
Out of some 48,000 compounds screened, about 120 (0.25%) were called active. Another 4% or so got no clear call; they are omitted. Calls follow the shape of the dose curve; as a rule, active = well fitted activation curve with a large enough effect; inconclusive = small, poorly fitted or top-dose-only effect, or another doubt; inactive = no such curve, though single readings can be large or run the other way. The entries are a selection whose mix differs from that of the whole data set. The source gives no active or inactive call for entries shown without one.

assay: Primary qHTS for Identification of Small Molecule Activators of Huntingtin-Antisense Promoter Activity; settings: HEK293 HTT-AS promoter firefly luciferase reporter, 24 h; activity change, positive = activation: at 57.5 µM (top of the series), percent change from vehicle, -100% = no light; also: nearly all actives have a fitted effect of over 55% in size
In short: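 Firefly luciferase readout (Dual-Glo, 10 min RT) after 24 h, 37 °C compound exposure (final up to 57.5 uM) of HEK293 reporter cells cultured 24 h beforehand; PTC124 at 50 uM final as control inhibitor; activity scaled vehicle 0%, zero RLU -100%.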

SMILES	activity change, positive = activation
C=CCc1ccccc1OCCSc1nc(-c2cccs2)nc2cc(=O)[nH]n12	-4.38%
Cc1cc(C)c(S(=O)(=O)N2CCC(n3c(C(F)(F)F)nc4cccnc43)CC2)c(C)c1	1.75%
CCOc1ccc(NC(=O)CSc2oc(-c3cccs3)nc2S(=O)(=O)c2ccc(C)cc2)cc1	inactive: -11.3%
COc1cc(C2C(=O)N(C3CCCCCC3)CC(=O)N2Cc2ccccc2)ccc1OC(C)C (stereo not given)	-17.6%
COC(=O)c1ccc(NC(=O)CN(Cc2ccccc2)S(=O)(=O)c2ccc(C)cc2)cc1	-28.6%
CC1Cc2cc(S(=O)(=O)CCC(=O)Nc3ccc(F)cc3)ccc2N1C(=O)C1CC1 (stereo not given)	-9.98%
CN(C(=O)c1c[nH]c2ccc(S(=O)(=O)Nc3cccc(C(F)(F)F)c3)cc2c1=O)C1CCCCC1	inactive: -20.3%
Cc1ccc(S(=O)(=O)Nc2cc3c(C(=O)OCc4ccccc4)c(C)oc3c3ccccc23)c(C)c1	-10.9%
CCOc1ccc(C2C(=O)N(C3CCCCCC3)CC(=O)N2Cc2ccc(F)cc2)cc1OC (stereo not given)	-26.8%
Clc1ccc(Nc2nc(-c3ccccc3)c3ccccc3n2)c(Cl)c1	inactive: 5.77%
COc1cc2oc(=O)c(CC(=O)NCCc3ccccc3)c(C)c2cc1Cl	6.18%
Cc1ccc(NC(=O)/C(C#N)=C\c2ccc(-c3ccc(Cl)cc3)o2)c(C)c1	inactive: -5.03%
Cc1ccc(NC(=O)Cn2cc(C(=O)C3CCCCC3)c3ccccc32)cc1	inactive: -26.1%
Cc1ccccc1NC(=O)CSc1nc(-c2ccco2)nc2cc(=O)[nH]n12	-11.9%
CCOc1ccc(-c2nc(CSCC(=O)NCc3ccc(C)cc3)c(C)o2)cc1	inactive: -77.3%
Cc1coc2cc3oc(=O)c(CCC(=O)NCc4ccccc4Cl)c(C)c3cc12	3.62%
OC[C@]1(O)OC[C@@H](O)[C@H](O)[C@@H]1O	inactive: -1.85%
CCOC(=O)c1c(-c2ccccc2)oc2ccc(N(C(C)=O)S(=O)(=O)c3ccccc3)cc12	-5.91%
CC(Sc1nc2c(c(=O)[nH]1)CCCC2)C(=O)Nc1cc(C(F)(F)F)ccc1Cl (stereo not given)	inactive: -7.03%
CC1(C)CC(=O)c2c(oc3c(Cl)cc(NS(=O)(=O)c4ccc(Br)cc4)cc23)C1	-0.363%
COc1ccccc1CNC(=O)c1ccc(-c2nc(CS(=O)(=O)c3ccc(C)cc3)c(C)o2)cc1	-30.7%
COc1cc(NS(=O)(=O)c2ccc3oc(=O)c4ncn(C)c4c3c2)cc(OC)c1	-2.23%
Cc1ccc(C)c(N2CCN(C(=O)C3CCN(C(=O)c4cc5sccc5n4C)CC3)CC2)c1	inactive: -43.1%
CC1=C(/C=C/C(C)=C/C=C/C(C)=C/C(=O)O)C(C)(C)CCC1	inactive: -6.75%
Cc1ccc(C2C(=O)N(C3CCCCCC3)CC(=O)N2C(C)C)cc1 (stereo not given)	-8.93%
